From paper PMC4336329 (PLoS ONE, 2015)
In all, about 310,000 compounds went through this assay and about 2,200 (0.71%) showed an effect of 50% or more. The effect is printed as a negative number. Some of the results follow.

What follows are compounds tested against human ether-à-go-go-related gene (hERG) potassium channel (human, UniProt Q12809) (assay: primary screen, population patch clamp on CHO cells stably expressing hERG).
Sequence of human ether-à-go-go-related gene (hERG) potassium channel (Q12809 whole entry, looked up): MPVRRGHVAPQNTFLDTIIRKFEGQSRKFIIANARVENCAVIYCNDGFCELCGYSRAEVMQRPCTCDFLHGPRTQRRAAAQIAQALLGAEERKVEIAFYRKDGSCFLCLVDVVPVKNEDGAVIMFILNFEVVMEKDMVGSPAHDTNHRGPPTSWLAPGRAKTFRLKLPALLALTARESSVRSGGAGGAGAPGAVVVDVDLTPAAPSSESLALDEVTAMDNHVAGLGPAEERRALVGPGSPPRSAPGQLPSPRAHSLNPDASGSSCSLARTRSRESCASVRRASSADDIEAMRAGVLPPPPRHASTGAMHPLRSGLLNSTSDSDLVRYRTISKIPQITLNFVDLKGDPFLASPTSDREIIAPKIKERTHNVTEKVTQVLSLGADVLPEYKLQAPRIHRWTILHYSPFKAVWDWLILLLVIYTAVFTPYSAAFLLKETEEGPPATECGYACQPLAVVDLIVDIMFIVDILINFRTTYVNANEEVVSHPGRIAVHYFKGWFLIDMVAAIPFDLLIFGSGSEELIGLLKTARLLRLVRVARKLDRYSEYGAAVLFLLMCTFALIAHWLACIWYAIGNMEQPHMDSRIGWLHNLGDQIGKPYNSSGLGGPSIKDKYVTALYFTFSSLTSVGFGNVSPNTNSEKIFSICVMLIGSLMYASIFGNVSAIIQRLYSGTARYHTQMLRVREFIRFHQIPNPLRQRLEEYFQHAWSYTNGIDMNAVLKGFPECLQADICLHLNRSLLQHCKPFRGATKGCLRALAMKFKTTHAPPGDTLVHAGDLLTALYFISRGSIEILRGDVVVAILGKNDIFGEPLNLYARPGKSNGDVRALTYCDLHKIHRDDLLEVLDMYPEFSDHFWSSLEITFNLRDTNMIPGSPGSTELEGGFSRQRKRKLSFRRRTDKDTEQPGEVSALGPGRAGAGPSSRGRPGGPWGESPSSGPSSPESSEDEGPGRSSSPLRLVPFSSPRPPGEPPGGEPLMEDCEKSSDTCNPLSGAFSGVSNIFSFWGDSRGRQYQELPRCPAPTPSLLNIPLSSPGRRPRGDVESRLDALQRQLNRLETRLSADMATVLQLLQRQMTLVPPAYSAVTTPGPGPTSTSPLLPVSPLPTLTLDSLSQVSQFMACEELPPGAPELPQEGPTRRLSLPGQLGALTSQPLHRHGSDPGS

Row | SMILES | hERG current change (%, negative = inhibition) at 1uM
1 | CC(=O)C1C(c2ccc(F)cc2)NC(=O)NC1(O)C(F)(F)F (stereo not drawn) | 2.82%
2 | CCOc1ccc(S(=O)(=O)Nc2ccc(C(=O)N3CCCC3)cc2)cc1C(N)=O | 12.1%
3 | CCOc1ccc(Br)cc1S(=O)(=O)Nc1ccc(N2CCOCC2)cc1 | 9.4%
4 | CSc1ccc(-c2sc(Nc3cccc4ccccc34)n[n+]2-c2ccccc2)cc1.[Cl-] | 17.1%
5 | COc1ccc(C(=O)Cn2nnc(-c3ccccc3F)n2)cc1 | 9.91%
6 | CC1CCCCN1C(=O)C(=O)c1cn(CC(=O)N2CCCCCC2)c2ccccc12 (stereo not drawn) | 9.15%
7 | Nc1nc(CSCc2ccccc2)nc(N2CCOCC2)n1 | -4.95%
8 | O=C(Nc1ccccc1Cl)C1CC(=O)n2c(nc3ccccc32)N1 (stereo not drawn) | 17.1%
9 | Cc1ccc(N2C(=O)N(CC(=O)NC(N)=O)C(=O)C2C)cc1 (stereo not drawn) | 4.51%
10 | COC(=O)C1=C(C(=O)OC)SC(=C2C(=S)C(C)(C)N(C(=O)CC(C)C)c3ccccc32)S1 | 1.9%
11 | O=[N+]([O-])c1ccc(NCCCNS(=O)(=O)c2ccccc2)c(Cl)c1 | 10.1%
12 | CSc1sc(C)cc1/C=N/O | 14.3%
13 | CCN1C(=O)/C(=C\c2cccs2)C(C(=O)OC)=C1C | 16.2%
14 | C=CCOc1ccc(CN(C)C(=O)c2ccc(CNS(=O)(=O)c3ccc(C)c(C)c3)cc2)cc1 | 5.4%
15 | COCCNC(=O)c1cn(CCOC)c(=O)c2c1c1ccccc1n2C | 8.33%
16 | Cc1c(C(=O)OCC(=O)N2C(C)CCCC2C)oc2ccccc12 (stereo not drawn) | 8.78%
17 | Cc1cccc(OCc2ccc(C(=O)Nc3ccc(F)cc3)cc2)c1 | 20%
18 | CCOCCCNC(=S)NCCCNc1nc2cc3c(cc2cc1C#N)OCO3 | 13.4%
19 | O=C(NCc1cccs1)C1(S(=O)(=O)c2ccccc2)CC=CC1 | 3.93%
20 | O=C(c1cc(C(=O)NCc2ccc(Cl)cc2)c(=O)n(Cc2ccc(Cl)cc2)c1)c1cc(F)ccc1O | 10.5%
21 | COc1ccc(C2C3=C(CCCC3=O)Nc3n[nH]c(C)c32)cc1OC (stereo not drawn) | 9.56%
22 | Cc1ccc(Cn2c(=S)[nH]c3ccc(N4CCOCC4)cc3c2=O)o1 | 0.14%

Row | SMILES | hERG current change (%, negative = inhibition) at 1uM
23 | O=C(CCn1c(=O)oc2ccccc21)NCc1ccc2c(c1)OCO2 | 8.18%
24 | Cc1ccc(-c2csc3ncnc(Nc4ccc(N5CCOCC5)cc4)c23)cc1.Cl | 8.54%
25 | Cc1ccc(-c2nc(SCC(=O)NCC3CCCO3)c(-c3ccc(C)cc3)[nH]2)cc1 (stereo not drawn) | 20.1%
26 | Cc1ccc(S(=O)(=O)N2CCCC(C(=O)NCc3ccccn3)C2)cc1 (stereo not drawn) | 6.86%
27 | O=C(C1=C(O)C(=O)N(CCN2CCOCC2)C1c1cccnc1)c1cc2ccccc2o1 (stereo not drawn) | 5.37%
28 | CC(=O)Nc1ccc(C(=O)N2CCN(C(=O)c3ccco3)CC2)cc1 | 5.59%
29 | O=c1c2ccc(Cl)cc2[nH]c(=S)n1CCC1=CCCCC1 | 13.8%
30 | CCOc1cc(C(=O)O)cc(Cl)c1OC | 15.4%
31 | CCOC(=O)N1CCN(c2c(NCCCN3CCCC(C)C3)c(=O)c2=O)CC1 (stereo not drawn) | 7.26%
32 | NC(=O)C1CCN(c2cc(Cl)nc(N)n2)CC1 | 15.1%
33 | CNC(=O)C(=O)Nc1cc2c3c(c1)CCN3C(=O)CC2 | 30.1%
34 | Cc1ccc(SCCC(=O)Nc2c(C)n(C)n(-c3ccccc3)c2=O)cc1 | 11.1%
35 | CCCC(=O)NC(=S)Nc1ccccc1F | 15.2%
36 | CCOc1ccc(CCNC(=O)CCCn2nc(C)c3c(C)n(-c4ccccc4)nc3c2=O)cc1 | 12.2%
37 | Cc1cccc(NC(=O)CNC(=O)CN2C(=O)NC3(CCCc4ccccc43)C2=O)c1C (stereo not drawn) | 14.1%
38 | COc1cc2c(cc1OC)C(C(=O)N1CCN(c3ccccn3)CC1)C(c1cccs1)N(C)C2=O (stereo not drawn) | -5.59%
39 | CC(C)(C)C(=O)Nc1cc2c3c(c1)CCC(=O)N3CCC2 | 13.2%
40 | CNC(=O)COc1ccc(Cl)c2cccnc12 | 19.6%
41 | CCS(=O)(=O)c1ccc(O)c(NC(=O)Nc2cccc3ccccc23)c1 | 9.44%
42 | CCCCOc1ccc(CN(C)c2ncnc(N)n2)cc1 | -1.16%
43 | O=C(c1noc2c1CSc1ccccc1-2)N1CCN(c2ccc(Cl)cc2)CC1 | 14.1%
44 | CCc1ccc(S(=O)(=O)Nc2cccc(C3OCCCO3)c2)cc1 | 12.4%

Row | SMILES | hERG current change (%, negative = inhibition) at 1uM
45 | CCN(CC)S(=O)(=O)c1cc(NS(=O)(=O)c2cccc(C(=O)O)c2)ccc1C | 11.8%
46 | COc1ccc(Cl)cc1NC(=O)COC(=O)c1c(-c2ccccc2)noc1C | -2.57%
47 | Cc1ccc(S(=O)(=O)N[C@@H](Cc2ccccc2)C(=O)CCl)cc1 | -1.13%
48 | CC1CN(c2cc(=O)n(-c3cccc(Br)c3)c(=O)[nH]2)CC(C)O1 (stereo not drawn) | 10.5%
49 | Cc1ccc([N+](=O)[O-])cc1S(=O)(=O)n1ccnc1C | 20.4%
50 | Cc1ccc(NC(=O)CN(C)CC(=O)N(C)Cc2ccccc2)cc1 | -17.2%
51 | Cn1nc(-c2ccccc2)cc1NC(=O)Nc1ccccc1F | 6.83%
52 | O=C(O)C1C2C=CC(C2)C1C(=O)Nc1cccc(C(F)(F)F)c1 (stereo not drawn) | 10.6%
53 | COc1ccccc1CNC(=O)C1CCCN(S(=O)(=O)c2c(C)[nH]c(=O)[nH]c2=O)C1 (stereo not drawn) | 13.2%
54 | N#Cc1ccc(CN(c2ccncc2)S(=O)(=O)c2ccccc2)cc1 | 13.1%
55 | Cc1noc(C)c1C(=O)OCC(=O)Nc1cc(S(=O)(=O)N2CCOCC2)ccc1Cl | -14.2%
56 | Nc1nc(SCC(=O)Nc2ccc([N+](=O)[O-])cc2)n[nH]1 | -0.763%
57 | CCOC(=O)c1nn(-c2ccc(C)cc2)c(=O)cc1OCC(=O)N1CCN(c2ccccc2)CC1 | 11.5%
58 | COc1ccc(C(=O)N/C(=C\c2ccccc2)C(=O)Nc2ccc(C(=O)O)cc2)cc1 | 13.4%
59 | CCN1CCN(c2sc(S(C)(=O)=O)nc2S(=O)(=O)c2ccc(C)cc2)CC1 | 9.75%
60 | CCOC(=O)c1cc(-c2cccs2)nc2c1c(C)nn2-c1ccccn1 | 9.39%
61 | O=C(CSc1ccccc1)Nc1ccc(NC(=O)c2ccco2)cc1 | 6.49%
62 | CCN(CCCNC(=O)CC1Oc2ccc(C)cc2NC1=O)Cc1ccccc1 (stereo not drawn) | -31%
63 | O=[N+]([O-])c1ccc(N2CCN(Cc3ccncc3)CC2)cc1 | -44.5%
64 | O=C(c1ccncc1)N1N=C(C2CCCCC2)CC1(O)C(F)(F)F (stereo not drawn) | 11%
65 | CCOC(=O)Cc1cnc(N)s1 | 5.4%
66 | Cc1cc(-c2nnc(SCc3cccnc3)o2)no1 | 3.04%

Row | SMILES | hERG current change (%, negative = inhibition) at 1uM
67 | CNC(=S)N1CCN(c2ccc([N+](=O)[O-])cc2)CC1 | -40.5%
68 | COc1ccccc1-n1cc(C(=O)NCC(=O)N2CCN(c3ccccn3)CC2)c2ccccc2c1=O | -5.71%
69 | Cc1cc(C)n(-c2cccc(CN3CCC(CO)(Cc4ccccc4)CC3)c2)n1 | -5.38%
70 | Cc1ccc(S(=O)(=O)NC(C)(C)CSc2ncccn2)cc1 | 10.8%
71 | O=C(CNC(=O)c1ccco1)N=Nc1c(O)[nH]c2ccc([N+](=O)[O-])cc12 | 12.5%
72 | CC(=O)Nc1ccc(S(=O)(=O)NCCC(=O)NNC(=O)c2ccncc2)cc1 | 8.41%
73 | COc1ccc(/C=C/C(=O)O)cc1S(=O)(=O)NCc1ccco1 | 12.2%
74 | CCN(CC)C(=O)c1ccc2c3c(cccc13)C(=O)N(CCc1ccc(OC)c(OC)c1)C2=O | -0.216%
75 | Cc1ccc2c(c1)N(C(=O)CCC(=O)N1CCOCC1)CC(C)O2 (stereo not drawn) | 13.5%
76 | Cc1ccc(S(=O)(=O)NCC(=O)NCC(=O)OC(C(=O)NC(N)=O)C(C)C)cc1C (stereo not drawn) | 13.7%
77 | COc1ccc(Cl)cc1NC(=O)CCNC(=O)OCc1ccccc1 | 1.38%
78 | CCOC(=O)CSc1nc2ccc(NC(=O)CSc3nnnn3Cc3ccccc3)cc2s1 | 16.7%
79 | COc1cc(CN2C(=O)C(NC(=O)c3ccco3)(C(F)(F)F)C3=C2CC(C)(C)CC3=O)cc(OC)c1 (stereo not drawn) | 7.6%
80 | COc1cc(C(=O)NCCC(c2ccccc2)c2ccccc2)cc(OC)c1OC | 8.82%
81 | O=C(CCNC(=O)c1ccccc1)N/N=C/c1ccc([N+](=O)[O-])cc1 | 2.5%
82 | COc1cc(OC)cc(C(=O)NCCCn2ccnc2)c1 | 18.8%
83 | Cc1ccc(OCc2nnc(N)s2)cc1 | 17%
84 | Cc1cccc(NC(=O)C2NC(=O)CC2c2ccccc2)c1C (stereo not drawn) | 7.2%
85 | CCOC(=O)C1(Cc2ccccc2)CCN(Cc2csc(C(C)=O)c2)CC1 | 7%
86 | CC(NC(=O)C1CCCN1S(=O)(=O)c1ccc2c(c1)n(C)c(=O)c(=O)n2C)c1ccccc1 (stereo not drawn) | 13.8%
87 | O=C(COC(=O)c1cc[n+]([O-])cc1)Nc1ccc(Cl)cc1C(F)(F)F | 19.1%
